B1: UniProt A0EPZ9; numbered along this chain (parent)
chain: MDWQKSLTLIVALTLSRGIGLKNDLPWKLKSDMMFFSRVTSGLLVTRSTGQMNVVLMGRKTWESLPAHSRPLKNRINVVISRQEVLDLGGGAYHARSLDDALALLSQIYDSTSKIQLNRVFVIGGGELCKAAMEHSRLNRIIATVIHNEVDCDVFFPIDFRSSQSCLPWRKQDHSVLEAWVGSKVPQGKINENGFIYEFEMWIRDI

In the data set the parent is B1. Description: selection coefficient against synonymous wild-type codons (log2 per generation); higher = faster growth than wild type. Particulars: with Saccharomyces cerevisiae carrying the variant on a plasmid. How it is done:
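Pooled growth of yeast carrying single-residue variants of P. jirovecii dihydrofolate reductase (own DFR1 gene intact), two passages at 30 °C, three cultures, sequenced before and after. Codons with under 15 starting reads are left out; codons of one change are averaged.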

± gives the standard deviation of the averaged measurements. Growth of baker's yeast expressing single-residue variants of Pneumocystis jirovecii dihydrofolate reductase in 8.8 or 44 µM methotrexate (about 75% and 90% inhibition of the wild type). Selection coefficient per generation; 0 = like wild type, above 0 = less sensitive, below 0 = more sensitive or loss of function. No active / inactive call per row; the paper calls resistant above 0.220 (8.8 µM) or 0.243 (44 µM) together with a significance test. At 44 µM about 15% of codons end with one read or none, so the lowest values are floors (replicate rank correlation 0.74; 0.94 at 8.8 µM).

With MDWQKSLTLIVALTLSRGIGLKNDLPWKQKSDMMFFSRVTSGLLVTRSTGQMNVVLMGRKTWESLPAHSRPLKNRINVVISRQEVLDLGGGAYHARSLDDALALLSQIYDSTSKIQLNRVFVIGGGELCKAAMEHSRLNRIIATVIHNEVDCDVFFPIDFRSSQSCLPWRKQDHSVLEAWVGSKVPQGKINENGFIYEFEMWIRDI [L29Q], the “selection coefficient against synonymous wild-type codons (log2)” value (“selection coefficient … (log2)” below) came out at 0.446 ± 0.007 (methotrexate 8.8 µM) and 0.479 ± 0.042 (methotrexate 44 µM).
The corresponding values for MDWQKSLTLIVALTLSRGIGLKNDLPWKLKSDMMFFSRVTSGLLVTRSTGQMNVVLMGRKTWESLPAHSRPLKNRINVVISRQEVLDLGGGAYHARSLGDALALLSQIYDSTSKIQLNRVFVIGGGELCKAAMEHSRLNRIIATVIHNEVDCDVFFPIDFRSSQSCLPWRKQDHSVLEAWVGSKVPQGKINENGFIYEFEMWIRDI [D99G] are -0.349 ± 0.12 and -0.132 ± 0.09.
Take MDWQKSLTLIVALTLSRGIGLKNDLPWKLKSDMMFFSRVTSGLLVTRSTGQMNVVLMGRKTWESLPAHSRPLKNRINVVISRQEVLDLGGGAYHARSLDDALALLSQIYDSTSKIQLNRVFVIGGGELCKAAMEHSRLNRIIATVIHNEVDCDRFFPIDFRSSQSCLPWRKQDHSVLEAWVGSKVPQGKINENGFIYEFEMWIRDI [V154R]: the “selection coefficient … (log2)” value (methotrexate 8.8 µM) was found to be 0.359 ± 0.068 and the “selection coefficient … (log2)” value (methotrexate 44 µM) was determined as 0.393 ± 0.044.
The corresponding values for MDWQKSLTLIVALTLSRGIGLKNDLPWKLKSDMMFFSRVTSGLLVTRSTGNMNVVLMGRKTWESLPAHSRPLKNRINVVISRQEVLDLGGGAYHARSLDDALALLSQIYDSTSKIQLNRVFVIGGGELCKAAMEHSRLNRIIATVIHNEVDCDVFFPIDFRSSQSCLPWRKQDHSVLEAWVGSKVPQGKINENGFIYEFEMWIRDI [Q51N] are -0.11 ± 0.046 and -0.125 ± 0.14.
On the same counts, the results for MDWQKSLTLIVALTLSRGIGLKNDLPWKLKSDMMFFSRVTSGLLVTRSTGQMNVVLMGRKTWESLPAHSRPLKNRINVVISRQEVLDLGGGAYHARSLDDALALLSQIYDSTSKIQLNRVFVIGGGELCKAAMEHSRLNRIIATVYHNEVDCDVFFPIDFRSSQSCLPWRKQDHSVLEAWVGSKVPQGKINENGFIYEFEMWIRDI [I146Y] are 0.106 ± 0.052 and 0.373 ± 0.034.
On to MDWQKSLTLIVALTLSRGIGLKNDLPWKLKSDMMFFSRVTSGLLVTRSTRQMNVVLMGRKTWESLPAHSRPLKNRINVVISRQEVLDLGGGAYHARSLDDALALLSQIYDSTSKIQLNRVFVIGGGELCKAAMEHSRLNRIIATVIHNEVDCDVFFPIDFRSSQSCLPWRKQDHSVLEAWVGSKVPQGKINENGFIYEFEMWIRDI [G50R], for which the “selection coefficient … (log2)” value was -0.1 ± 0.039 (methotrexate 8.8 µM) and -0.0955 ± 0.089 (methotrexate 44 µM).
The corresponding values for MDWQKSLTLIVALTLSRGIGLKNDLPWKLKSDMMFFSRVTSGGLVTRSTGQMNVVLMGRKTWESLPAHSRPLKNRINVVISRQEVLDLGGGAYHARSLDDALALLSQIYDSTSKIQLNRVFVIGGGELCKAAMEHSRLNRIIATVIHNEVDCDVFFPIDFRSSQSCLPWRKQDHSVLEAWVGSKVPQGKINENGFIYEFEMWIRDI [L43G] are 0.198 ± 0.06 and 0.156 ± 0.11.
On the same counts, the results for MDWQKSLTLIVALTLSRGIGLKNDLPWKLKSDMMFFSRVTSGLLVTRSTGQMNVVLMGRKTWESLPAHSRPLKNRINVVISRQEVLDLGGGAYHARSLDDALALLSQIYDSTSKIQLNRVFVIGGGELCKAAMEHSRLNRIIATVIHNEVDCDVFFPIDFRSSQSCLPRRKQDHSVLEAWVGSKVPQGKINENGFIYEFEMWIRDI [W169R] are -0.585 ± 0.2 and -0.296 ± 0.14.
On the same counts, the results for MDWQKSLTLIVALTLSRGIGLKNDLPWKLKSDMMFFSRVTSGLLVTRSTGQMNVNLMGRKTWESLPAHSRPLKNRINVVISRQEVLDLGGGAYHARSLDDALALLSQIYDSTSKIQLNRVFVIGGGELCKAAMEHSRLNRIIATVIHNEVDCDVFFPIDFRSSQSCLPWRKQDHSVLEAWVGSKVPQGKINENGFIYEFEMWIRDI [V55N] are -0.544 ± 0.071 and -0.254 ± 0.018.
For MDWQKSLTLIVELTLSRGIGLKNDLPWKLKSDMMFFSRVTSGLLVTRSTGQMNVVLMGRKTWESLPAHSRPLKNRINVVISRQEVLDLGGGAYHARSLDDALALLSQIYDSTSKIQLNRVFVIGGGELCKAAMEHSRLNRIIATVIHNEVDCDVFFPIDFRSSQSCLPWRKQDHSVLEAWVGSKVPQGKINENGFIYEFEMWIRDI [A12E], the “selection coefficient … (log2)” value is -0.325 ± 0.1 (methotrexate 8.8 µM) and -0.344 ± 0.16 (methotrexate 44 µM).
Turning to MDWQKSLTLIVALTLSRGIGLKNDLPWKLKSDMMFFSRVTSGLLVTRSTGQMNVVLMGRKTWESLPAHSRPLKNRINVVISRQEVLDLGGGAYHARSLDDALALLSQIYDSTSKIQLNRVFVIGGGELCQAAMEHSRLNRIIATVIHNEVDCDVFFPIDFRSSQSCLPWRKQDHSVLEAWVGSKVPQGKINENGFIYEFEMWIRDI [K130Q], the “selection coefficient … (log2)” value was -0.143 ± 0.0069 (methotrexate 8.8 µM) and -0.223 ± 0.21 (methotrexate 44 µM).
The corresponding values for MDWQKSLTLIVALTLSRGIGLKNDLPWKLKSDMMFFSRVTSGLLVTRSTGQMNVVLMGRKTGESLPAHSRPLKNRINVVISRQEVLDLGGGAYHARSLDDALALLSQIYDSTSKIQLNRVFVIGGGELCKAAMEHSRLNRIIATVIHNEVDCDVFFPIDFRSSQSCLPWRKQDHSVLEAWVGSKVPQGKINENGFIYEFEMWIRDI [W62G] are -0.509 ± 0.063 and -0.367 ± 0.028.
On the same counts, the results for MDWQKSLTLIVALTLSRGIGLKNDLPWKLKSDMMFFSRVTSGLLVTRSTGQMNVVLMGRKTWESLPAHSRPLKNRINVVISRQEVLDLGGGAYHARSLDDALALLSQIYDSTSKIQLNRVFVIGGGELCKAAMEHSRLNRIIATVIHNEVDCDVFFPIDFRSSQSCLPWRKQRHSVLEAWVGSKVPQGKINENGFIYEFEMWIRDI [D173R] are -0.302 ± 0.11 and -0.321 ± 0.1.
The corresponding values for MDWQKSLTLIVALTLSRGIGLKNDLPWKLKSDMMFFSRVTSGLLVTRSTGQMNVVLMGRKTWESLPAHSRPLKNRINVVISRQEVLDLGGGAYHARSLDDALALLSQIYDSTSKIQLNRVFVIGGGELCKAAMEHSRLNRIIATVIHNEVDCDVFFPIDFRSSQSCLPWRKQDHWVLEAWVGSKVPQGKINENGFIYEFEMWIRDI [S175W] are -0.382 ± 0.081 and -0.23 ± 0.029.
As to MDWQKSLTLIVALTLSRGIGLKNDLPWKLKSDMMFFSRVTSGLLVTRSTGQMNVVLMGRKTWESLPAHSRPLKNRINVVISRQEVLDLGGGAYHARSLDDALALLSQIYDSTSKIQLNRVFVIGGGELCKAAMEHSRLNRIIATVIHNSVDCDVFFPIDFRSSQSCLPWRKQDHSVLEAWVGSKVPQGKINENGFIYEFEMWIRDI [E149S], the “selection coefficient … (log2)” value reads like this: (methotrexate 8.8 µM) -0.087 ± 0.047; (methotrexate 44 µM) -0.0293 ± 0.2.

Source of the values: the supplement of paper PMC11125491.
